Laboratory results reported in PubChem BioAssay AID256 (DTP/NCI, 2004).
Inconclusive results and toxic doses are left out. The source holds more than one record for some entries. Only these are listed. An entry can have further records. Values given together are repeats across runs, samples, wells, individuals or studies. Records carry a tag for their origin. Letters count within one entry.

Test system: CD2F1 mice, L1210 leukemia ip, survival T/C
Assay: NCI In Vivo Anticancer Drug Screen. Data for tumor model L1210 Leukemia (intraperitoneal) in CD2F1 (CDF1) mice
Conditions: higher = longer survival
Outline: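 Implant tumor; dose compound or vehicle; measure endpoint in both groups; report treated divided by control.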

CCc1ncnc2cc(OCC3CO3)c(OC)cc12 (stereo not given)
T/C (endpoint: median survival time, dose: 5.0 mg/kg/injection, schedule: Q03DX003 (ip), vehicle: saline): 117 % of control and 158 % of control

Nc1nc2ccc(NCc3ccc(C(=O)NC(CCC(=O)O)C(=O)O)cc3)cc2c(=O)[nH]1 (stereo not given)
T/C (endpoint: median survival time, dose: 100.0 mg/kg/injection, schedule: Q01DX009 (ip), vehicle: saline with Tween-80): 112 % of control, 121 % of control, 165 % of control

Nc1nc(=S)c2ncn(C3CC(O)C(CO)O3)c2[nH]1 (stereo not given)
T/C (endpoint: mean survival time, dose: 266.0 mg/kg/injection, schedule: Q01DX009 (ip), vehicle: water): 124 % of control and 154 % of control
T/C (endpoint: mean survival time, dose: 320.0 mg/kg/injection, schedule: Q08DX002 (ip), vehicle: saline): 113 % of control [sample A] and 158 % of control [sample B]

CCCOP(=O)(N1CC1(C)C)N1CC1(C)C (stereo not given)
T/C (endpoint: mean survival time, dose: 50.0 mg/kg/injection, schedule: Q04DX003 (ip), vehicle: saline): 120 % of control and 159 % of control

CCOC(=O)C1=C(Nc2ccc(OC)cc2)C(N)=NC1=N
T/C (endpoint: median survival time, dose: 166.7 mg/kg/injection, schedule: Q01DX005 (ip), vehicle: saline): 113 % of control and 156 % of control

NC(C/[N+]([O-])=N/O)C(=O)O (stereo not given)
T/C (endpoint: mean survival time, dose: 450.0 mg/kg/injection, schedule: Q04DX003 (ip), vehicle: alkali diluted with saline): 118 % of control and 179 % of control

NC(=O)c1csc(C2OC(COP(=O)(O)O)C(O)C2O)n1 (stereo not given)
T/C (endpoint: mean survival time, dose: 100.0 mg/kg/injection, schedule: Q01DX005 (ip), vehicle: water): 121 % of control and 186 % of control

O/N=C/C1CCCC[N-]1.O/N=C/C1CCCC[N-]1.O/N=C/C1CCCC[N-]1.[Cu] (stereo not given)
T/C (endpoint: median survival time, dose: 3.0 mg/kg/injection, schedule: Q03HX024 (ip), vehicle: saline): 100 % of control and 566 % of control

C[C@H](N)C(=O)N[C@@H]1[C@H]2C(=C(O)C[C@@H](O)[C@@H]2O)C(=O)O[C@]1(C)C(Cl)Cl
T/C (endpoint: median survival time, dose: 3.0 mg/kg/injection, schedule: Q01DX009 (ip), vehicle: saline): 117 % of control and 192 % of control
